In PubChem BioAssay AID1159614 (National Center for Advancing Translational Sciences (NCATS), 2016):
The whole screen tested about 45,000 compounds, of which about 65 (0.1%) were called active. Calls come from the whole dose curve; as a rule, active = well fitted activation curve with a large enough effect; inconclusive = small, poorly fitted or top-dose-only effect; inactive = no such curve, though single readings can be large or run the other way. The list shows a part of the results.

What follows are molecules tested against Galactocerebrosidase (Homo sapiens) (UniProt P54803) (assay: A Novel Cell-Based Assay to Identify Small Molecules for B -Galactocerebrosidase). Conditions: 145M-Twi-hGALC-G270D cells, HMU-beta-Gal fluorescence, 48 h; series mostly up to 57.5 µM; activation: at the top concentration.
UniProt P54803, sequence (P54803 whole entry, looked up): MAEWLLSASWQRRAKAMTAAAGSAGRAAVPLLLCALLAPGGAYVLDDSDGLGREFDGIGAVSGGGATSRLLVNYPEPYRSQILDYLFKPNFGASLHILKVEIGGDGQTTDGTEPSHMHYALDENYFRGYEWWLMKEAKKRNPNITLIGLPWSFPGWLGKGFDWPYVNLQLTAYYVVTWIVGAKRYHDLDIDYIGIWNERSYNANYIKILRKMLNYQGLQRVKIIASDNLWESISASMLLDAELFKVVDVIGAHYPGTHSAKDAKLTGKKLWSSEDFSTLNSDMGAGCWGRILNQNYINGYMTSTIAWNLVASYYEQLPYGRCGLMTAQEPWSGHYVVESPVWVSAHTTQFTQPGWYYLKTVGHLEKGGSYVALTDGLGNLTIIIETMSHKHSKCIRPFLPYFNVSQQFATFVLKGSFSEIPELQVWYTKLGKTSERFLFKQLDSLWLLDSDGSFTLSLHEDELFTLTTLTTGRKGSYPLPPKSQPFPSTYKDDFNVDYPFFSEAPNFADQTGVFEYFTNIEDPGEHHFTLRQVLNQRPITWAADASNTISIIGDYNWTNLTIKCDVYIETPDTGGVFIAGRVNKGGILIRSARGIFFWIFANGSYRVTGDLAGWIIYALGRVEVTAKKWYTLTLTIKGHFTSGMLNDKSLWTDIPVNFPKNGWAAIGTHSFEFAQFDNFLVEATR
Outline: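 qHTS, 1536-well; 145M-Twi-hGALC-G270D cells (WT line also made) in DMEM/F12 + 10% FBS; compound incubation on live cells; HMU-β-gal 0.1 mM final, pH 5.2, NaTC; carbonate stop; fluorescence increase = enhanced residual activity.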
Note: 0% is about no effect; nearly all actives have a fitted effect of over 65% in size.

SMILES | activation
COc1ccc(NC(=O)c2ccc3c(c2)CCN3S(=O)(=O)c2ccc(C)cc2)cc1Cl | inactive: -7.25%
Cc1c(Cl)cccc1NC(=O)CN1C(=O)COc2ccc(S(=O)(=O)Nc3ccccc3)cc21 | inactive: -12%
CN1CCCC(n2nc(Cc3ccc(Cl)cc3)c3ccccc3c2=O)CC1 (configuration not stated) | inactive: -6.22%
FC(F)(F)C(F)(F)C(F)(F)C(F)(F)C(F)(F)C(F)(F)C(F)(F)C(F)(F)Br | inactive: -15.9%
COc1ccc(Cl)cc1NC(=O)CCc1c(C)nc2c(c1C)c(=O)n(C)c(=O)n2C | inactive: -14.8%
CCCSCCCNC(=O)c1ccc(Cn2c(=O)c3cccn3c3cccnc32)cc1 | inactive: -7.82%
Cc1ccc(NC(=O)CN(C)S(=O)(=O)c2ccc3nc(C)sc3c2)c(C)c1 | inactive: -12.8%
CC(C)NS(=O)(=O)c1ccc2nc(NC(=O)c3cncc(Br)c3)sc2c1 | inactive: -6.37%
CC(C)NC(=O)c1ccc(-n2c(-c3ccccc3)cc3c2CCCCC3)cc1 | inactive: 4.61%
Nc1ncc(S(=O)(=O)NCc2ccc(Cl)cc2)cn1 | inactive: 10.1%
COc1ccc(Cl)cc1NC(=O)Cn1cc(C(=O)c2ccncc2)c(=O)c2cc(C)ccc21 | inactive: -20.9%
Cn1nnc2c(N3CCN(c4ccccc4F)CC3)ncnc21 | inactive: -7.31%
CCOc1ccc(-c2cc(OC(=O)c3ccccc3)c3c(C)oc(C)c3c(=O)c2)cc1 | inactive: -3.44%
COc1cc2nc(SCc3cccc(Cl)c3)n3nc(CCn4nc(C)cc4C)nc3c2cc1OC | inactive: -12.8%
Cc1ccccc1C(=O)Nc1cccc(C(=O)OCc2cc(=O)n3c4c(sc3n2)CCCC4)c1 | inactive: -17.5%
Cc1ccc(NC(=O)N(Cc2cn(C)c3ccccc23)C2CCCCC2)cc1C | inactive: -11.8%
O=C(CSc1nc2ccccc2n1Cc1ccccc1F)NCc1ccccc1 | inactive: -15.7%
CCC(Sc1nc2cc(OC)c(OC)cc2c(=O)n1CCc1ccc(Cl)cc1)C(=O)NCCOC (configuration not stated) | inactive: -12.9%
COc1cc2c(cc1OC)C(COc1ccc(F)cc1)N(C(=O)Cc1ccc(F)cc1)CC2 (configuration not stated) | inactive: -20.7%
Cc1ccc(-n2c(SCC(=O)NCc3ccc(F)cc3)nc3c([nH]c4ccccc43)c2=O)cc1 | inactive: -5.03%
CCCCNC(=O)CSc1nc2cc3c(cc2c(=O)n1CCCCCC(=O)NCc1ccc2c(c1)OCO2)OCO3 | inactive: 1.64%
COc1ccc(N(CC(=O)NCCc2ccccc2)S(=O)(=O)c2ccccc2)c(OC)c1 | inactive: -17.1%
Cc1ccc2oc3c(c(=O)c2c1)C(c1ccccc1F)N(CCCN1CCOCC1)C3=O (configuration not stated) | inactive: 6.56%
Cc1ccc(CN(C(=O)COc2cccc([N+](=O)[O-])c2)c2ccccn2)cc1 | inactive: -5.12%

SMILES | activation
CCOC(=O)C1CCN(c2ncnc3c2nnn3C)CC1 | inactive: -17.5%
Cc1ccc(Nc2c(-c3ccncc3)nc3ccc(C)cn23)cc1 | inactive: -8.48%
CCOc1ccc(OCC)c(S(=O)(=O)N2CCN(c3cccc(C)c3C)CC2)c1 | inactive: 11.1%
CC(C)c1ccc(CNc2nc(-c3ccco3)nn2S(=O)(=O)c2ccc3ccccc3c2)cc1 | inactive: -14.4%
Cc1cc(C)cc(N2CCn3c2nc2c3c(=O)n(Cc3ccc(Cl)cc3)c(=O)n2C)c1 | inactive: -3.66%
CCCS(=O)(=O)c1ncc(Cl)c(C(=O)Nc2scc(-c3ccccc3)c2C(=O)OCC)n1 | inactive: -13%
COc1ccc(CNC(=O)Cn2nnc(-c3ccc(S(C)(=O)=O)cc3)n2)cc1 | inactive: -18.3%
CN(C)CCC[C@@]1(c2ccc(F)cc2)OCc2cc(C#N)ccc21 | inactive: -25%
O=S(=O)(c1ccccc1)c1nc(-c2ccc(Cl)cc2Cl)oc1N1CCCCCC1 | inactive: -27.5%
CC(=O)N[C@@H](CCC(=O)O)C(=O)O | inactive: -17.5%
COc1ccc(-c2nc(Cn3c(SCc4ccc(C)cc4)nc4cccnc43)c(C)o2)cc1OC | inactive: -10.3%
CCC1CCCCN1CC(=O)N1CCCc2c1c(=O)oc1ccc(OCc3ccccc3)cc21 (configuration not stated) | inactive: -5.9%
O=C(CCCn1c(=O)c2cccn2c2cccnc21)NCc1ccc(F)cc1 | inactive: -7.64%
COc1cccc(-c2cc(C(=O)Nc3cc(OC)c(OC)c(OC)c3)on2)c1 | inactive: -11.8%
COc1cccc2c1cc1c(=O)n(CC(=O)N3CCN(c4cc(Cl)ccc4C)CC3)nc(C)n12 | inactive: -16.4%
CCOC(=O)c1ccc(NC(=O)C2=C(C)Nc3nc(SCc4ccc(Cl)cc4)nn3C2c2ccc(OC)cc2)cc1 (configuration not stated) | inactive: -7.1%
COc1ccc(-c2nnc(SCC(=O)Nc3ccc(Cl)cc3)s2)cc1 | inactive: -5.7%
CCN1CCN(c2ccc(NS(=O)(=O)c3c(C)nc4sccn4c3=O)cc2Cl)CC1 | inactive: -50.4%
COc1ccc(CNC(=O)CCC(=O)N2CCSc3ccccc32)cc1 | inactive: 24%
CCOc1ccc(-n2c(C)nc3cc(C(=O)NCCC4=CCCCC4)ccc32)cc1 | inactive: -8.02%
COc1ccc(C(=O)CC2(O)C(=O)N(Cc3ccccc3Cl)c3ccccc32)cc1 (configuration not stated) | inactive: 0.636%
CCOc1ccc(CC(=O)NCCc2sc3nc(-c4ccc(OC)cc4)nn3c2C)cc1 | inactive: -7.69%
CCN(CC)C(=O)c1sc2c(c1C)c(=O)n(-c1ccccc1)c(=O)n2CC(=O)Nc1ccc(C)cc1C | inactive: -1.65%
